These are yes or no findings as the source states them, for the method shown. Some binding calls cover weakened binding; strength is not graded here. Blank lines part the entries; values can stand above or below the binder they belong to.
Tests used:
Experiment in all cases: two-hybrid; GAL4 activation domain (pGAD-C1) and GAL4 DNA binding domain (pGBDU-C3) fusions in S. cerevisiae PJ69-4A; spotted on SD medium, scored for growth in the absence of adenine, 30 °C
[1] = target: T1, SpbK (full length) (B. subtilis (ICEBs1)) (UniProt P96648)
T1 sequence: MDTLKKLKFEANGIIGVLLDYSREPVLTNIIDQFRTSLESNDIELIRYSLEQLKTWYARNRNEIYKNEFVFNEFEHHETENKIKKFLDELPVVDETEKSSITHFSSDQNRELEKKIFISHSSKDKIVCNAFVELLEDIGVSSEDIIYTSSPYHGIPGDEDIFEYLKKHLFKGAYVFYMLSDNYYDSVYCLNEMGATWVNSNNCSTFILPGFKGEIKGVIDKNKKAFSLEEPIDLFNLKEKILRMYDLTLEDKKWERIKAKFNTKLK

[2] = target: T2, SpbK amino acids 97-266 (TIR domain) (B. subtilis (ICEBs1)) (UniProt P96648)
T2 sequence: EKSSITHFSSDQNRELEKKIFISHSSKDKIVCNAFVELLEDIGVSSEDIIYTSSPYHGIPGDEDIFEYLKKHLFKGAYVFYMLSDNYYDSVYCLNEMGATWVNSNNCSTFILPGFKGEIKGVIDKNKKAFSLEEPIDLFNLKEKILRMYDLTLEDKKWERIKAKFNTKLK

[3] = target: SpbK amino acids 1-104 (N-terminus) (B. subtilis (ICEBs1)) (UniProt P96648)

binding [1]: binds
B1: SpbK (full length) (protein, UniProt P96648 1-266)
chain: T1 sequence

binding [1]: binds | binding [2]: binds
B2: SpbK amino acids 97-266 (TIR domain) (domain or fragment, UniProt P96648 97-266)
chain: T2 sequence

binding [3]: no binding | binding [1]: no binding | binding [2]: no binding
B3: SpbK amino acids 1-104 (N-terminus) (domain or fragment, UniProt P96648 1-104)
chain: MDTLKKLKFEANGIIGVLLDYSREPVLTNIIDQFRTSLESNDIELIRYSLEQLKTWYARNRNEIYKNEFVFNEFEHHETENKIKKFLDELPVVDETEKSSITHF

Reference: publication PMC8880864
